Results published in publication PMC4336329 (PLoS ONE, 2015).
Hit rate of the full screen: of about 310,000 compounds, about 14,000 (4.5%) showed an effect of 50% or more. Effects have a minus sign here. The list shows a part of the results.

biological target: human ether-à-go-go-related gene (hERG) potassium channel (human, UniProt Q12809); assay: primary screen, population patch clamp on CHO cells stably expressing hERG
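Note: peak tail current of the secondary pulse compared with the same well before compound.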

Sequence of human ether-à-go-go-related gene (hERG) potassium channel (Q12809 whole entry, looked up): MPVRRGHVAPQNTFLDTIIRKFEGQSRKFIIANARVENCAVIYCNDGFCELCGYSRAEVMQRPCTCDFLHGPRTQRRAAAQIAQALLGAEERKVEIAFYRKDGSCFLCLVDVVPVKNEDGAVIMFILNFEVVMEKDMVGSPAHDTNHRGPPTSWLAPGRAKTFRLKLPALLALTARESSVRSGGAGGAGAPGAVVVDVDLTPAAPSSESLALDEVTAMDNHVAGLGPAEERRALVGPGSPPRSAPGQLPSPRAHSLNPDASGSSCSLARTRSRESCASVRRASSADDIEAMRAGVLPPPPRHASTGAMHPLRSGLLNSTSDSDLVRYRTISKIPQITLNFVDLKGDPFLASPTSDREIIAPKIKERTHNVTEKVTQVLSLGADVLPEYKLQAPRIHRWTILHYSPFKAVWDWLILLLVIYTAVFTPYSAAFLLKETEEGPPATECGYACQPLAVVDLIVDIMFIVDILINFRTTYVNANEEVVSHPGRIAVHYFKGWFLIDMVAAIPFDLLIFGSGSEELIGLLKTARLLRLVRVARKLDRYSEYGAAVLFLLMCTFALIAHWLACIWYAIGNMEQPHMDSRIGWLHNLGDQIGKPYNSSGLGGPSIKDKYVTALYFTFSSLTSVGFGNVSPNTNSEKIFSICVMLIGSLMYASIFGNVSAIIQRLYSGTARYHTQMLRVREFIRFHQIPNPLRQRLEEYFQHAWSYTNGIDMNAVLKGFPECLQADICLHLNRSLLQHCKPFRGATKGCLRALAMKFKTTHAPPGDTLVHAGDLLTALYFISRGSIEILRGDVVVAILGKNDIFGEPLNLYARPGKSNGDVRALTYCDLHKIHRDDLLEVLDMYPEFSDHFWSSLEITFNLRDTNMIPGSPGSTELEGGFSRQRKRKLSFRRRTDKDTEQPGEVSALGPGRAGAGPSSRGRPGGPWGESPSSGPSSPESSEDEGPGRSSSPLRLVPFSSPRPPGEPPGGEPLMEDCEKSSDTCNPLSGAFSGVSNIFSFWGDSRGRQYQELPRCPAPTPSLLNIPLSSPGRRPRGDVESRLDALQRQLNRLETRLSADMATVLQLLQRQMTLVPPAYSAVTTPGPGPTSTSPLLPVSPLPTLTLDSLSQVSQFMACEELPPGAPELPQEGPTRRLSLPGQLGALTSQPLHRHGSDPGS

Compound	hERG current change (%, negative = inhibition) at 10uM [%]
O=C(c1cnc(N2CCN(c3ncccn3)CC2)c2ccccc12)N1CCN(c2ccccn2)CC1	-21.7
CCCCN(CC)C(=O)C1CCC(CNS(=O)(=O)c2cccc3nsnc23)CC1 (stereo not shown)	-23.7
Cc1nnc(SCC(=O)N2CCCCCC2)n(N)c1=O	12.1
N#C/C(=C\c1ccc[nH]1)C(=O)NCC1CCCO1 (stereo not shown)	11.6
CN(Cc1ccco1)C(=O)CCc1nc2sc3c(c2c(=O)[nH]1)CCCC3	-9.11
CCOC(=O)c1cnc(SC2CC(=O)N(c3ccccc3)C2=O)nc1N (stereo not shown)	9.58
Cc1ccc(/C=C/C(=O)O)cc1S(=O)(=O)Nc1ccc(C(=O)O)cc1	5.14
N#CC(=C=[N-])c1nc2ccccc2nc1-[n+]1cccc(NC(=O)c2cccs2)c1	-1.3
CN1/C(=C\C(=S)Nc2ccccc2)C(C)(C)c2ccccc21	-16.9
O=C(O)c1ccc(S(=O)(=O)NC2CCCc3ccccc32)cc1 (stereo not shown)	4.88
CCOC(=O)c1ccc(NC(=S)N(CCN2CCCCCC2)Cc2cccs2)cc1	-11.6
COc1ccc(S(=O)(=O)c2ccc(OCC3CO3)cc2)cc1 (stereo not shown)	13.7
CCOc1ccc(C(=O)C[n+]2ccc(C(=O)NCCO)cc2)cc1.[Br-]	18.3
O=C(CSc1ccccc1Cl)N1CCC(c2nc3ccccc3s2)CC1	-7.4
CCN(CC)C(=O)C1=C(C)NC(=O)NC1c1ccccc1F (stereo not shown)	-3.49
Cc1ccc(NC(=O)C2CCN(C(=O)NC3CCCCC3)CC2)cc1	1.58
O=C(CSc1nnc(-c2ccncc2)s1)Nc1ccc(Cl)c(C(=O)O)c1	13.7
Cc1ccc(C)c(N2CCN(S(=O)(=O)c3csc(C(N)=O)c3)CC2)c1	-8.27
O=C(Nc1ccc(S(=O)(=O)Nc2ncccn2)cc1)c1ccc(N2CCCC2=O)cc1	20.1
CCN(CC(=O)NCc1cccs1)CC(=O)Nc1cccc(S(N)(=O)=O)c1	14.4
Cc1cc(OCC(=O)N[C@@H](Cc2ccccc2)C(=O)O)c2c3c(c(=O)oc2c1)CCCC3	0.915
COc1ccc(OC)c(C2SCCN2S(C)(=O)=O)c1 (stereo not shown)	-7.13
Cc1ccc(-c2nc3ncccn3c2Nc2ccc3c(c2)OCO3)o1	-48
C=C1CC2C(=O)N(Cc3cc(OC)ccc3OC)C(C(=O)OCC)(C(=O)OCC)C1N2C(=O)OC(C)(C)C (stereo not shown)	-4.79
O=C(c1ccc(Cn2cc([N+](=O)[O-])cn2)o1)N1CCCCCC1	-4.88
COc1ccc(N2CCN(C(=O)CSc3nnc(COc4cccc5cccnc45)o3)CC2)cc1	-12
c1ccc(-c2csc(NC3CCCCC3)n2)cc1	17.1
CCCCCCNCc1ccc(Br)cc1.Cl	-61.7

Compound	hERG current change (%, negative = inhibition) at 10uM [%]
CCN(CC)C(c1ccc(F)cc1)c1nnnn1C1CCCCC1.Cl (stereo not shown)	-8.8
COc1ccc(S(=O)(=O)c2c(O)c3ccc(C(=O)Nc4ccccc4)cc3[nH]c2=O)cc1	11.7
CC1CCCN(C(=O)C2CC(=O)N(c3ccc(Cl)cc3)C2)C1 (stereo not shown)	-2.95
CC(=O)Nc1nn(C)c2nc3ccc(C)cc3cc12	13
COc1ccccc1C(=O)NNC(=O)C1CCCO1 (stereo not shown)	11.5
COc1ccc(/C=C/C(=O)NCC(=O)N2CCC(N(C)CCN3CCOCC3)CC2)cc1OC	14.7
Cc1cccc(-n2c(Cc3ccccc3)nnc2SCc2ccc([N+](=O)[O-])cc2)c1	-37.6
CC(C)=C1C2CCC1C(C(=O)NCCc1ccccc1)C2C(=O)O (stereo not shown)	23.4
COc1cccc(-c2csc(N3CCN(C(=S)NCC(C)C)CC3)n2)c1	-0.713
N#CCCn1cc(C=C(C#N)C#N)c(-c2ccc(Cl)cc2)n1	-4.66
CC(=O)c1ccc(NS(=O)(=O)c2ccc(C)cc2)cc1	8.09
Cn1c(N)c(C(=O)COC(=O)COc2ccc(Br)cc2)c(=O)n(C)c1=O	-72.6
COC(=O)c1ccc(COc2ccc(C)c(C)c2)o1	12.3
CCOC(=O)c1sc2nc(C)nc(NC3CCC(O)CC3)c2c1C (stereo not shown)	2.9
c1coc(CNc2ncnc3sc4c(c23)CCCCC4)c1	-39.4
Cc1ccc(C(=O)COC(=O)CNC(=O)Cc2ccccc2)cc1[N+](=O)[O-]	11.7
CN(C)[C@@H]1C(=O)C(C(N)=O)=C(O)[C@@]2(O)C(=O)C3=C(O)c4c(O)cccc4[C@@](C)(O)[C@H]3[C@H](O)[C@@H]12.O	8.23
Cc1cc(C)nc(NNC2=CC(=[N+]3CCCCC3)CC(C)(C)C2)n1.[I-]	-14.9
O=C(Cn1[nH]c(=O)c2ccccc2c1=O)NCc1cccnc1	22.4
COCCNC(=O)c1cccc(NC(=O)C2=C(C)OCCS2)c1	34
COc1ccc(S(=O)(=O)N2CCCCCC2)cc1C(=O)OCC(=O)NC(C)(C)C	-17.5
COc1ccc(C(=O)NC(=O)COC(=O)c2ccc(C)o2)cc1	-3.33
O=C(COC(=O)/C=C/c1nc2ccccc2s1)Nc1cccc2ccccc12	1.72
Cc1nc(Nc2cccc(C(C)O)c2)c2nnn(Cc3ccccc3F)c2n1 (stereo not shown)	-7.29
CC1(C)CC(=O)C(C(O)c2cccc([N+](=O)[O-])c2)C(C)(C)N1 (stereo not shown)	7.02
Cc1cccc(C(=O)NC(CC(=O)O)c2ccc(OC3CCCC3)cc2)c1[N+](=O)[O-] (stereo not shown)	23.8
Cc1cc(C)c(NC(=O)CSc2nnc(CNC(=O)c3c(F)cccc3Cl)o2)c(C)c1	12.3
